Source: patent US20240181007A1, “COMPOSITIONS AND METHODS FOR TREATING PULMONARY HYPERTENSION” (Acceleron Pharma Inc., priority 2021, published 2024)

How the values were obtained:
[1] = target: T1, activin A (UniProt P08476 311-426); assay: cell-based or functional assay
T1 sequence (looked up): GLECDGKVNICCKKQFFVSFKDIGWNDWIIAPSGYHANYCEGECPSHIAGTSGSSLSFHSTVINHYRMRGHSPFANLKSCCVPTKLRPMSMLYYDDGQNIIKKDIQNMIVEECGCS

[2] = target: T2, BMP9 (UniProt Q9UK05 320-429); assay: cell-based or functional assay
T2 sequence (looked up): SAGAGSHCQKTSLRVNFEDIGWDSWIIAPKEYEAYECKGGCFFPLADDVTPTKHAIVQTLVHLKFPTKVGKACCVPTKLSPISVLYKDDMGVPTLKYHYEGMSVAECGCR

[3] = target: T3, GDF11 (UniProt O95390 299-407); assay: cell-based or functional assay
T3 sequence (looked up): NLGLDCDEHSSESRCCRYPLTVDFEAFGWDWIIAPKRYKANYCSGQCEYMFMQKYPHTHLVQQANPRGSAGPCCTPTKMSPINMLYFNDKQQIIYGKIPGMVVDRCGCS

[4] = target: T4, BMP10 (UniProt O95393 317-424); assay: cell-based or functional assay
T4 sequence (looked up): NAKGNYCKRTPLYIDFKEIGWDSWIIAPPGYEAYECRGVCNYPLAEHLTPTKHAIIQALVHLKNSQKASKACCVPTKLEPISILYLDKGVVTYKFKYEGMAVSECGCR

[5] = target: T5, GDF8 (UniProt O14793 267-375); assay: cell-based or functional assay
T5 sequence (looked up): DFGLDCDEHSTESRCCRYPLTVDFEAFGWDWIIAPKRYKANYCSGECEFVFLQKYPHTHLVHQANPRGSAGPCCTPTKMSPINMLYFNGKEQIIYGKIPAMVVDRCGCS

[6] = target: T6, activin B (UniProt P09529 293-407); assay: cell-based or functional assay
T6 sequence (looked up): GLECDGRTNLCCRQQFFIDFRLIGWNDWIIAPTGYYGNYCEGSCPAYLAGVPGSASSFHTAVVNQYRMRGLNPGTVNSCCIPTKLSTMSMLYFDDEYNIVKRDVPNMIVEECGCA

[7] = target: T1, activin A; assay: SPR (Biacore), fusion protein captured by anti-Fc antibody, ligand injected, 37 C
Procedure: (§1) A Biacore™-based binding assay was used to compare the ligand binding kinetics of an ActRIIB-Fc:ActRIIB(L79E)-Fc heterodimer with those of unmodified ActRIIB-Fc homodimer. Fusion proteins were captured onto the system using an anti-Fc antibody. Ligands were then injected and allowed to flow over the captured receptor protein at 37° C. Results are summarized in the table below, in which ligand off-rates (kd) most indicative of effective ligand traps are denoted in bold.

[8] = target: T7, GDF3 (UniProt Q9NR23 251-364); assay: as above
T7 sequence (looked up): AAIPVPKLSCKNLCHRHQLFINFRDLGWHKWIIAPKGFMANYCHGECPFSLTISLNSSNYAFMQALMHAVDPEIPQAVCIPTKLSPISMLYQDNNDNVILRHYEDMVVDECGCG
Procedure: as §1

[9] = target: T2, BMP9; assay: as above
Procedure: as §1

[10] = target: T3, GDF11; assay: as above
Procedure: as §1

[11] = target: T8, BMP6 (UniProt P22004 382-513, limits assumed); assay: as above
T8 sequence (looked up): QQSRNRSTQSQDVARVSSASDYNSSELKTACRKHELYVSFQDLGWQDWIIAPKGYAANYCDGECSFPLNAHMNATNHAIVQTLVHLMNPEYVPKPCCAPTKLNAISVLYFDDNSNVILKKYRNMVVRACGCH
Procedure: as §1

[12] = target: T4, BMP10; assay: as above
Procedure: as §1

[13] = target: T5, GDF8; assay: as above
Procedure: as §1

[14] = target: T6, activin B; assay: as above
Procedure: as §1

[15] = target: T1, activin A; assay: cell-based or functional assay; remark: listed apart in the source
[16] = target: T2, BMP9; assay: cell-based or functional assay; remark: listed apart in the source
[17] = target: T3, GDF11; assay: cell-based or functional assay; remark: listed apart in the source
[18] = target: T1, activin A; assay: SPR (Biacore), 37 C; Fc fusion captured via anti-Fc, ligand injected
Procedure: (§2) To determine ligand binding profiles of variant ActRIIB-Fc homodimers, a Biacore™-based binding assay was used to compare ligand binding kinetics of certain variant ActRIIB-Fc polypeptides. ActRIIB-Fc polypeptides to be tested were independently captured onto the system using an anti-Fc antibody. Ligands were then injected and allowed to flow over the captured receptor protein. ActRIIB-G1Fc was used as the control polypeptide.

[19] = target: T6, activin B; assay: as above
Procedure: as §2

[20] = target: T1, activin A; assay: SPR (Biacore), 37 C; Fc fusion captured via anti-Fc, ligand injected; ka/kd cell reads Transient* (indeterminate, transient interaction)
Procedure: as §2

B1: ActRIIB-G1Fc (Fc fusion)
chain: GRGEAETRECIYYNANWELERTNQSGLERCEGEQDKRLHCYASWRNSSGTIELVKKGCWLDDFNCYDRQECVATEENPQVYFCCCEGNFCNERFTHLPEAGGPEVTYEPPPTAPTG[human IgG1 Fc and a few adjoining residues left out here]
notes: Homodimeric Fc fusion, mature form as purified from CHO cells; also called ActRIIB-Fc; ActRIIB-Fc homodimer
In the case of B1, the “IC50 (nM), A204 CAGA12 luciferase reporter assay” value (shortened to “IC50 (nM)”) [1] is reported as 0.05 nM, the “IC50 (nM)” value [2] is reported as 1.82 nM and the “IC50 (nM)” value [3] is reported as 0.12 nM. The “IC50 (nM)” value [4] was 0.036 nM, the “IC50 (nM)” value [5] was 0.95 nM and the “IC50 (nM)” value [6] was 0.067 nM. For the same binder, the Kd [7] was 0.025 nM, the koff [7] was 0.00019 s⁻¹ and the kon [7] was 7.4e+06 M⁻¹ s⁻¹. For the same binder, the Kd [8] was 1.5 nM, the koff [8] was 0.0022 s⁻¹ and the kon [8] was 1.4e+06 M⁻¹ s⁻¹. The Kd [9] was 0.25 nM, the koff [9] was 0.0013 s⁻¹ and the kon [9] was 5e+06 M⁻¹ s⁻¹. It also gave a Kd [10] of 0.004 nM, a koff [10] of 0.00017 s⁻¹ and a kon [10] of 4.1e+07 M⁻¹ s⁻¹. The Kd [11] was 0.056 nM, the koff [11] was 0.0074 s⁻¹ and the kon [11] was 1.3e+08 M⁻¹ s⁻¹. For the same binder, the Kd [12] was 0.004 nM, the koff [12] was 0.0002 s⁻¹ and the kon [12] was 5.1e+07 M⁻¹ s⁻¹. The Kd [13] was 0.07 nM, the koff [13] was 0.00026 s⁻¹ and the kon [13] was 3.8e+06 M⁻¹ s⁻¹. It also gave a Kd [14] of 0.008 nM, a koff [14] of 6.6e-05 s⁻¹ and a kon [14] of 8.1e+06 M⁻¹ s⁻¹. The “IC50 (ng/ml), A204 CAGA12 luciferase reporter assay” value (“IC50 (ng/ml)” for short) [15] was 8 ng/mL, the “IC50 (ng/ml)” value [16] was 31 ng/mL and the “IC50 (ng/ml)” value [17] was 9 ng/mL. The Kd [18] was 0.0146 nM, the koff [18] was 0.000114 s⁻¹ and the kon [18] was 7.82e+06 M⁻¹ s⁻¹. For the same binder, the Kd [19] was 0.0085 nM, the koff [19] was 6.17e-05 s⁻¹ and the kon [19] was 7.22e+06 M⁻¹ s⁻¹.

B2: ActRIIB(F82T)-G1Fc (Fc fusion)
chain: GRGEAETRECIYYNANWELERTNQSGLERCEGEQDKRLHCYASWRNSSGTIELVKKGCWLDDTNCYDRQECVATEENPQVYFCCCEGNFCNERFTHLPEAGGPEVTYEPPPTAPTG[human IgG1 Fc and a few adjoining residues left out here]
notes: Homodimeric Fc fusion; substitution already in the entry
B2 was tested, and the “IC50 (nM)” value [1] was 0.1 nM, the “IC50 (nM)” value [3] was 0.27 nM and the “IC50 (nM)” value [4] was 0.07 nM. For the same binder, the “IC50 (nM)” value [5] was 2.17 nM, the “IC50 (nM)” value [6] was 0.09 nM and the Kd [18] was 0.0109 nM. For the same binder, the koff [18] was 0.000204 s⁻¹, the kon [18] was 1.87e+07 M⁻¹ s⁻¹ and the Kd [19] was 0.012 nM. For the same binder, the koff [19] was 0.000223 s⁻¹ and the kon [19] was 1.85e+07 M⁻¹ s⁻¹.

B3: ActRIIB(L79H)-G1Fc (Fc fusion)
chain: GRGEAETRECIYYNANWELERTNQSGLERCEGEQDKRLHCYASWRNSSGTIELVKKGCWHDDFNCYDRQECVATEENPQVYFCCCEGNFCNERFTHLPEAGGPEVTYEPPPTAPTG[human IgG1 Fc and a few adjoining residues left out here]
notes: as for B2
With B3 the “IC50 (nM)” value [1] was > 10 nM, the “IC50 (nM)” value [3] was 0.24 nM and the “IC50 (nM)” value [4] was > 100 nM. The “IC50 (nM)” value [5] was 5.7 nM, the “IC50 (nM)” value [6] was 0.07 nM and the Kd [19] was 0.0169 nM. The koff [19] was 0.000267 s⁻¹, the kon [19] was 1.58e+07 M⁻¹ s⁻¹ and the Kd [20] was 9.19 nM.

B4: ActRIIB(L79H-F82I)-G1Fc (Fc fusion)
chain: GRGEAETRECIYYNANWELERTNQSGLERCEGEQDKRLHCYASWRNSSGTIELVKKGCWHDDINCYDRQECVATEENPQVYFCCCEGNFCNERFTHLPEAGGPEVTYEPPPTAPTG[human IgG1 Fc and a few adjoining residues left out here]
notes: Homodimeric Fc fusion; substitutions already in the entry
B4 was tested, and the “IC50 (nM)” value [1] was > 100 nM, the “IC50 (nM)” value [3] was 0.36 nM and the “IC50 (nM)” value [4] was > 100 nM. For the same binder, the “IC50 (nM)” value [5] was > 10 nM, the “IC50 (nM)” value [6] was 0.15 nM and the Kd [19] was 0.0158 nM. For the same binder, the koff [19] was 0.000224 s⁻¹, the kon [19] was 1.42e+07 M⁻¹ s⁻¹ and the Kd [20] was 3.38 nM.

B5: ActRIIB(L79H-F82K)-G1Fc (Fc fusion)
chain: GRGEAETRECIYYNANWELERTNQSGLERCEGEQDKRLHCYASWRNSSGTIELVKKGCWHDDKNCYDRQECVATEENPQVYFCCCEGNFCNERFTHLPEAGGPEVTYEPPPTAPTG[human IgG1 Fc and a few adjoining residues left out here]
notes: as for B4
In the case of B5, the “IC50 (nM)” value [3] is reported as > 100 nM, the “IC50 (nM)” value [4] is reported as > 100 nM and the “IC50 (nM)” value [6] is reported as 0.1 nM. It also gave a Kd [19] of 0.0196 nM, a koff [19] of 0.000316 s⁻¹ and a kon [19] of 1.61e+07 M⁻¹ s⁻¹. The Kd [20] was 11.7 nM.
